Among the data in PubChem BioAssay AID1347044 (National Center for Advancing Translational Sciences (NCATS), 2019) are CC50 values, retold here.

Some of the results follow. The main result of the screen is listed elsewhere. These columns were measured beside it and carry no call. Compounds called inactive in the main read-out are mostly missing here. Potencies come from curve fits of mixed quality, noted in brackets.
Tags describe the fitted curve by direction and shape.

This test is described as follows: Natriuretic polypeptide receptor (hNpr1) antagonism - Confirmation. Further: nearly all actives have a fitted effect of over 70% in size. Particulars: HEK293 hNpr1 cGMP GloSensor luminescence, ANP-stimulated; measured here: HEK-hNpr1 cytotoxicity, CellTiter-Glo. In outline: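 Compound (30 min, room temperature) preceded stimulation with hNppA peptide at 0.1 nM final for 20 min. Cells were HEK293 carrying hNpr1 plus GloSensor pGS-40F cGMP biosensor, pre-equilibrated 2 h with 2% substrate; cGMP was followed as luminescence pre- and post-agonist.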
`COc1cccc(NC(=O)c2ccc(-c3nnc4ccc(NC(=O)C5CCC5)cn34)cc2)c1`: the 50% cytotoxic concentration (CC50) is 9.68 µM [falling, full curve]. With `COc1ccc(CNC(=O)c2ccc(Cn3ccn4nc5c(c4c3=O)CCCC5)cc2)cc1OC`, the CC50 is 24.3 µM [falling, partial curve]. Regarding `CCOC(=O)C1=CN(CC(=O)Nc2c(C)cc(C)cc2C)S(=O)(=O)N=C1C`, the CC50 is 21.7 µM [falling, partial curve]. As to `COc1ccc(-c2noc(CC3CCN(C(=O)Cc4ccccc4)CC3)n2)cc1`, the CC50 is 27.3 µM [falling, partial curve].

Take `COc1ccc(-c2noc(CC3CCN(C(=O)COc4ccc(C)cc4)CC3)n2)cc1`: the half-maximal cytotoxic concentration (CC50) is 13.7 µM [falling, partial curve]. In the case of `O=C(N1CCC(n2cc(-c3nc(-c4ccccc4)no3)nn2)CC1)C1(c2ccccc2)CC1`, the CC50 is 27.3 µM [falling, partial curve]. In the case of `COc1cccc([S+](=O)([O-])N2CCC3(CC2)C(=O)Nc2ccccc23)c1` it was 31.4 µM [falling, partial curve]. In the case of `O=C(NCC1CC1)c1nc2c(o1)CCN(Cc1ccc3c(c1)CCO3)CC2` it was 35.3 µM [falling, partial curve]. In the case of `O=C(c1cc(Cl)ccc1F)N1CCN(C(=O)c2nnn3c2COC(c2ccccc2)C3)CC1` (configuration not stated) it was 24.3 µM [falling, partial curve].

Regarding `COc1ccc(S(=O)(=O)N[C@H]2C[C@@H](c3nc(-c4ccc(OC(F)(F)F)cc4)no3)N(C)C2)cc1`, the CC50 was 19.3 µM [falling, partial curve].

For the compound `COc1cccc(CC(=O)N2CCN(C(=O)c3nnn4c3COC(c3ccc(C)cc3)C4)CC2)c1` (configuration not stated), the CC50 was 24.3 µM [falling, partial curve].

`COc1ccc(-c2noc(CC3CCN(C(=O)Cc4ccc(OC)c(OC)c4)CC3)n2)cc1`: the CC50 was 4.85 µM [falling, full curve]. Consider `O=C(c1cc2n(n1)CC(c1ccc(Cl)cc1)OC2)N1CCN(c2ccc(Cl)cc2)CC1` (configuration not stated), for which the CC50 was 27.3 µM [falling, single point]. Turning to `Cc1c(C(C)NC(=O)c2cc(CC(C)C)nn2C)cnn1-c1ccccc1` (configuration not stated), the CC50 was 0.385 µM [falling, full curve]. In the case of `Cc1cccc(CNC(=O)c2csc(N3CCN(c4ccccc4)CC3)n2)c1` it was 27.3 µM [falling, partial curve]. In the case of `OC1CC(c2cc(N3CCC(CCn4cccn4)CC3)ncn2)C1` (configuration not stated) it was 6.11 µM [falling, partial curve]; in that of `Cc1ccccc1C(=O)N1CCN(C(=O)c2nnn3c2COC(c2ccc(Cl)cc2)C3)CC1` (configuration not stated), 21.7 µM [falling, partial curve].
